From the supplement of paper PMC3334620
Over roughly 33,000 sequences, “E-score (-0.5 to 0.5)” has its median near -0.036; the highest 2% begin near 0.37. The list shows a part of the results.

Target: T1, Yer064c (UniProt P40041)
T1 sequence: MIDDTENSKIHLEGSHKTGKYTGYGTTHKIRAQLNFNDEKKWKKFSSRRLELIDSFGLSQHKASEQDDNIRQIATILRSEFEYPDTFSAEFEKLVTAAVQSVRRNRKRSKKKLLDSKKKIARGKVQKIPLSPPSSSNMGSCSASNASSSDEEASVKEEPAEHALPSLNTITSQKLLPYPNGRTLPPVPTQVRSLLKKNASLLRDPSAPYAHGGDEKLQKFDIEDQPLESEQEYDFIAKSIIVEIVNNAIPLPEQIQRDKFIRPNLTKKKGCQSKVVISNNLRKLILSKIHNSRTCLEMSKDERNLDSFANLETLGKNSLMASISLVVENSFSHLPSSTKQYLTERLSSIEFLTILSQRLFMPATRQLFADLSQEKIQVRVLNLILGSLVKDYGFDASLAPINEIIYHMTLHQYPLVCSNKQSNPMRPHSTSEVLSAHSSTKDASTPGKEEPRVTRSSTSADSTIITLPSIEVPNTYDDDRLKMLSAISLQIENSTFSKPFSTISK
Assay: PBM E-score (8-mer binding enrichment) (E-score (-0.5 to 0.5)); higher = stronger / more preferred TF binding; most listed sequences are background and not binding sites
Conditions: protein concentration: 200 nM; construct: GST-full length
Procedure: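 Universal 'all 10-mer' protein binding microarrays (Agilent AMADID 015681) probed with GST-tagged S. cerevisiae TFs (full-length or DBD) made by in vitro transcription/translation (PURExpress), about 100-200 nM. Bound TF was detected with fluorescent anti-GST. Each ungapped 8-mer (which stands for itself and its reverse complement) is scored by the PBM enrichment score (E-score), a modified Wilcoxon-Mann-Whitney statistic from -0.5 to +0.5, computed with the Universal PBM Analysis Suite. Scale: above 0.35 generally sequence-specific binding.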

| Sequence | PBM E-score |
| --- | --- |
| ATCCATGC | -0.181 |
| CCAACGTA | -0.106 |
| AAGATCCG | -0.234 |
| GGTTTAGA | -0.00087 |
| ACTGTGCC | 0.092 |
| CTAACGAC | 0.0878 |
| ACAGAGAC | 0.0153 |
| AGGACTGA | 0.244 |
| AGTCATTA | 0.487 |
| CGCTAAGC | 0.0419 |
| ACACTCGC | 0.111 |
| GTAGGTCA | -0.115 |
| CGGTGGTA | -0.0749 |
| GAGGCAGC | -0.206 |
| GCCAATCA | 0.124 |
| GACATCCA | -0.27 |
| GAGTTGGA | 0.0164 |
| GGGGGAAC | -0.295 |
| CATATCGC | -0.0171 |
| ACCTGCAC | -0.0242 |
| GGTTACAC | -0.0467 |
| GAAATTGC | -0.232 |
| CCCGAGAC | -0.0215 |
| AAACCACG | -0.152 |
| ATTTGACG | -0.0958 |

| Sequence | PBM E-score |
| --- | --- |
| CCTCCCTC | -0.186 |
| GCAACTCC | -0.278 |
| GAACCCAA | -0.00777 |
| ATCAGATG | 0.0687 |
| GGATCTCA | -0.162 |
| AATGCGGC | -0.244 |
| CGTGATAC | -0.131 |
| GTATGGGA | -0.288 |
| GCGCGAAC | -0.102 |
| ATTGTGCC | -0.0362 |
| CAAAGTCG | 0.167 |
| AGTGGTAG | -0.149 |
| ATGGTAGG | -0.0528 |
| ACCGAAAC | -0.109 |
| TCCAACGA | 0.173 |
| CAGTACGA | 0.0701 |
| CTAGATTA | 0.265 |
| CTTAGGGC | -0.108 |
| CTACGCCC | -0.0516 |
| CTATAAAC | 0.0724 |
| AACGGGAT | -0.185 |
| TAGTTCGA | -0.126 |
| ACCCTTTG | -0.176 |
| CCACCAGG | -0.174 |
| AGTAGGGC | -0.154 |

| Sequence | PBM E-score |
| --- | --- |
| CGTTTTAC | 0.0584 |
| GTGAGTAA | 0.331 |
| ACGTCGCC | -0.299 |
| GTCCTAAA | 0.119 |
| ACCGGGGG | -0.236 |
| ATTGATTA | 0.286 |
| GTATAATA | 0.125 |
| ATTAAATC | 0.262 |
| GTGTACAC | -0.0474 |
| TACAGGCA | -0.102 |
| AGGGCATA | 0.068 |
| CGTGTTAC | 0.133 |
| ACCCAGCT | -0.215 |
| AGATCATG | 0.104 |
| ACGCCGGG | -0.255 |
| AGCCAGAG | 0.108 |
| GACGTAGA | -0.173 |
| CAATGTAG | -0.0784 |
| AGGTCACC | 0.00721 |
| AATAATAC | 0.0338 |
| AAGTGCAC | -0.0148 |
| CCTGTCTC | 0.112 |
| ACACGCTA | -0.0441 |
| GCGACTTA | 0.266 |
| CTCCGTAC | -0.0196 |

| Sequence | PBM E-score |
| --- | --- |
| CGATAAAG | -0.0425 |
| AGTCATGA | 0.485 |
| TATCAGGA | 0.105 |
| ACAGGTAC | -0.154 |
| AACGCGCC | -0.172 |
| AAATAGTT | -0.0372 |
| CAAACATC | 0.0712 |
| CCCATTGC | -0.0354 |
| GCGGACGC | -0.125 |
| CTCGACTC | 0.34 |
| ACCTACAA | -0.049 |
| ATGGTAAG | -0.0135 |
| GAAATTCC | -0.153 |
| CACCCTAA | -0.0623 |
| GCGCTCAA | -0.0234 |
| CATTCTGA | 0.166 |
| GGATGGAC | -0.0919 |
| ACAGTTCA | 0.0788 |
| CGCCTCCA | -0.134 |
| ATCACTGC | 0.229 |
| GTCTGTAA | -0.0205 |
| CCTCCCGA | -0.138 |
| CTACCCGC | 0.0472 |
| GAACGATC | -0.11 |
| TCACTGGA | -0.0186 |

| Sequence | PBM E-score |
| --- | --- |
| AGTTAAAC | 0.133 |
| AACCATGC | 0.158 |
| ACGGCCAG | -0.206 |
| AAAGTCAA | 0.319 |
| ACCACATG | 0.127 |
| CCGGAACA | -0.144 |
| GCTCTGAC | 0.0728 |
| GGCCCAAC | -0.249 |
| TAAATGAA | 0.0301 |
| ACCCCGTC | -0.135 |
| ACTTAGGC | 0.0394 |
| CTGCCAAC | -0.123 |
| CACTCTAG | -0.0744 |
| CCCGGAGG | -0.243 |
| AGGGTTTC | -0.306 |
| CGGTTCCA | -0.193 |
| GCTGTCAC | -0.132 |
| GATCACAC | 0.178 |
| CTGAAAAA | 0.0477 |
| AGAACGGG | -0.182 |
| ACAACGTA | -0.0564 |
| ACACCGCC | -0.0173 |
| CCTTATTC | -0.264 |
| CGGCCCCG | -0.271 |
| AGGGTTAC | -0.0655 |

| Sequence | PBM E-score |
| --- | --- |
| AAATCAAT | 0.196 |
| GCAGGCAA | -0.0374 |
| CTATCTAA | -0.00256 |
| CAACCGCG | 0.152 |
| AACAAGAT | 0.0644 |
| CGATGCAC | -0.246 |
| AGTCCAGG | 0.0238 |
| GGCCGTAA | -0.15 |
| ATAGGAGA | -0.153 |
| AGCTAGAT | -0.12 |
| CCCCTTGA | 0.0833 |
| TAGGTTCA | 0.0589 |
| AAGTGTCG | -0.0503 |
| CGTCGGTC | -0.0819 |
| ATCCACAC | -0.104 |
| TACTTCCA | -0.119 |
| CGCGCTAG | 0.00499 |
| GAGCACGA | 0.0851 |
| ACTAATCG | 0.226 |
| GATGATCA | 0.323 |
| GCCATACA | -0.0155 |
| ACTAGGGG | -0.129 |
| TGCCTACA | -0.303 |
| AGGTATAA | 0.0395 |
| CGTCGTGC | -0.106 |

| Sequence | PBM E-score |
| --- | --- |
| GTGGTTAA | 0.222 |
| GCGGGGAC | -0.0668 |
| AATGTAAA | 0.00266 |
| GTTAGCTA | -0.0723 |
| ATCAAATG | 0.165 |
| GCAGACAC | -0.00677 |
| GTTAAGCA | -0.0802 |
| CCGGAATA | -0.118 |
| AGAATGCA | -0.00775 |
| CGGCATGC | -0.211 |
| ACCTATCA | -0.0853 |
| CACGGCGG | -0.121 |
| CTATACGA | 0.126 |
| ACCTAGTA | 0.0718 |
| AAGATAAG | 0.154 |
| TTCTGCAA | -0.00185 |
| ATACGCAT | -0.0702 |
| ATATGCTC | -0.235 |
| CCTGGTCA | -0.154 |
| CACGCATG | 0.081 |
| AGATCGTG | -0.0981 |
| AAGGCCCA | -0.152 |
